Source: PubChem BioAssay AID2202238 (Ras Initiative Chemistry Research Team, Frederick National …, 2025)
In all, about 2,200 compounds went through this assay and fewer than 10 were called active. The list shows a part of the results. Where no call is shown, the source marks the result inconclusive.

Biological target: GTPase KRas (Homo sapiens) (UniProt P01116)
Assay: Cysteine mutants labelled by reactive fragments (mass read-out) (AID 2202238)
Design: protein at 5 µM with 500 µM competing thiol for 1.5 h
Details: KRAS G12D cysteine mutants, disulfide tethering, MALDI-TOF labeling; stronger effect = higher value; H27C mutant labeling; fragment at 500 µM

UniProt P01116, sequence (P01116 whole entry, looked up, the tested form may be a part): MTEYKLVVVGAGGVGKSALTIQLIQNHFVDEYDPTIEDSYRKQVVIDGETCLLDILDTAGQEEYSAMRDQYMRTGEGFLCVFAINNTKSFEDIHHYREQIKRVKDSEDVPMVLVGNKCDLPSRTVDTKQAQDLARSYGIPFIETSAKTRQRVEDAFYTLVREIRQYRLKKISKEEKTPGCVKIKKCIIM

Row | Structure (SMILES) | percent labeling [%]
1 | O=C(NCCS)C1CCCN(C(=O)c2ccncc2)C1 (stereo not given) | 37.8
2 | O=C(CCS)N(Cc1nc(C2CCCCCC2)no1)C1CC1 | 33
3 | O=C(Cc1ccc(-n2cccn2)cc1)NCCS | 27.3
4 | CCc1[nH]c(-c2ccc(Cl)cc2)nc1C(=O)NCCS | 29.9
5 | Cc1ccc(-c2nn(C)cc2C(=O)NCCS)o1 | 34
6 | O=C1NCC(C(=O)NCCS)c2ccccc21 (stereo not given) | 30
7 | Cc1ccn(CC(C)(O)C(=O)NCCS)c(=O)c1 (stereo not given) | 29.8
8 | O=C(Cn1c(=O)ccn(Cc2ccccc2)c1=O)NCCS | 37.5
9 | O=C(NCCS)c1cnn2cc(Br)cnc12 | 59.1
10 | CC1(C)CCc2nc(NC(=O)CCS)sc2C1 | 26.5
11 | O=C(NCCS)c1ccc(CN2CCCC2)o1 | 56.8
12 | CC(=O)N1CC(C(=O)NCCS)Oc2ccccc21 (stereo not given) | 29.3
13 | Cc1cc(C)n(Cc2cccc(NC(=O)CCS)c2)n1 | 44.8
14 | O=C(NCCS)C1CCCN1C(=O)Cc1cn2ccsc2n1 (stereo not given) | 24.2
15 | O=C(CCS)NCc1cc(Oc2cccc(F)c2)ccn1 | 39.1
16 | O=C(NCCS)c1cncn1-c1ccc(F)cc1 | 42.2
17 | CCN(CC)C(C(=O)NCCS)c1cc(Cl)cc(Cl)c1 (stereo not given) | 29.5
18 | O=C(CCS)N1Cc2ncccc2N2CCC[C@H]2C1 | 26.5
19 | CC1CN(C(=O)CCS)CCc2cc(Br)c(O)cc21 (stereo not given) | 36.4
20 | CC(CC(=O)NCCS)c1ccccc1Br (stereo not given) | 27.9
21 | Cc1cc2occ(CC(=O)NCCS)c2cc1C | 21.4
22 | O=C(NCCS)c1cc(-c2ccco2)n(-c2cccc(Cl)c2)n1 | 24.4
23 | O=C(NCCS)c1c(C(F)(F)F)oc2ccccc12 | 22.6

Row | Structure (SMILES) | percent labeling [%]
24 | O=C(NCCS)c1cccnc1OCC(F)(F)F | 30.7
25 | O=C(NCCS)c1cncc(N2CCCC2=O)c1 | 39.8
26 | O=C(CCS)NCCOc1ncc(C(F)(F)F)cc1Cl | 30.8
27 | COC1(c2nc(Cc3ccccc3)no2)CCN(C(=O)CCS)CC1 | 33.2
28 | O=C(NCCS)C1CC12CCCc1ccccc12 (stereo not given) | 29.7
29 | Cc1nc(C(C)(C)C)[nH]c(=O)c1C(=O)NCCS | 27.2
30 | CCc1csc(-n2cc(C(=O)NCCS)cn2)n1 | 37.2
31 | Cc1ccc(N(Cc2cnn(C)c2)C(=O)CCS)cc1 | 41.9
32 | O=C(NCCS)c1nn(-c2cccc(Br)c2)c2c1CCCC2 | 24.4
33 | Cc1[nH]c2ccccc2c1-c1csc(NC(=O)CCS)n1 | 31
34 | O=C(NCCS)C12CCC(C(F)(F)F)(CC1)CC2 | 35.1
35 | O=C1COc2cc(F)c(C(=O)NCCS)cc2N1 | 29.3
36 | O=C(CN(Cc1ccco1)c1cccc(Cl)c1)NCCS | 22.3
37 | Cn1c(C(=O)NCCS)cc2ccccc2c1=O | 44.4
38 | O=C(CCS)Nc1cnc(Oc2ccccc2)nc1 | 29.5
39 | O=C(Cc1c[nH]c2ccccc12)NC1(C(=O)NCCS)CCCC1 | 14.4
40 | O=C(CCS)NCc1cc(-c2ccco2)on1 | 34.5
41 | O=C(NCCS)[C@H]1CCO[C@@H]1c1cccnc1 | 21.9
42 | CC(NC(=O)CCS)C(O)c1cccc(F)c1 (stereo not given) | 30.5
43 | CC1CN(Cc2ccccc2)CC1C(=O)NCCS (stereo not given) | 50.4
44 | CCn1cc(Cn2cc(Cl)c(NC(=O)CCS)n2)cn1 | 44
45 | Cn1nccc1-c1[nH]ncc1CNC(=O)CCS | 39.5
46 | O=C(CCS)N1CCC(c2cccc(F)c2)CC1 | 45.7

Row | Structure (SMILES) | percent labeling [%]
47 | CCn1ncc(C(=O)NCCS)c1-c1ccccc1 | 42.4
48 | O=C(NCCS)C1CCN(S(=O)(=O)c2ccccc2C2CCCCC2)CC1 | 6.7
49 | O=C(NCCS)C1CC(=O)N(CCOc2ccccc2Cl)C1 (stereo not given) | 34.4
50 | COc1cc(NC(=O)CCS)c(C(N)=O)cc1OC | 44.3
51 | O=C(NCCS)C1CC(=O)N(Cc2ccco2)C1 (stereo not given) | 24.3
52 | COc1ccc2c(c1)OC(C)(C)CN(C(=O)CCS)C2 | 42
53 | Cc1cc(OC(F)F)c(C(=O)NCCS)s1 | 32.3
54 | O=C(NCCS)c1ccc(C(F)(F)F)c(=O)[nH]1 | 18.9
55 | Cc1cc(NC(=O)CCS)nn1CC(N)=O | 33.3
56 | O=C(NCCS)c1c(C2CC2)nc2sccn12 | 50.6
57 | O=C(CCS)NCC(O)(c1ncco1)C(F)(F)F (stereo not given) | 31.5
58 | CC1(C(=O)NCCS)CCN(c2ccncc2)CC1 | 65
59 | O=C(CCS)NC1(Cc2ccc(F)cc2)CC1 | 30.4
60 | O=C(NCCS)c1cncc(-c2ccc3c(c2)CCO3)c1 | 42.6
61 | CN1Cc2ccc(CNC(=O)CCS)cc2C1 | 28.4
62 | COc1cccc2c1CCN(C(=O)CCS)CC2 | 34.2
63 | Cc1ccc(CNC(=O)CCS)c(OC2CCCC2)c1 | 30.5
64 | CN(Cc1ccccc1C(F)(F)F)C(=O)CCS | 39.2
65 | Cc1cc(=O)[nH]c(N2CCN(C(=O)CCS)CC2)n1 | 41.2
66 | O=C(NCCS)C1CCCN(Cc2cccc(F)c2)C1 (stereo not given) | 38.9
67 | O=C(CCS)NCCc1cc(-c2ccncc2)n[nH]1 | 37.2
68 | O=C(NCCS)c1cncn1-c1ccccc1Cl | 52.3
69 | CC(C)n1nc(C(=O)NCCS)c2ccccc2c1=O | 36.6

Row | Structure (SMILES) | percent labeling [%]
70 | O=C(CCn1cc(Br)ccc1=O)NCCS | 37.9
71 | CCCN1C(=O)CCc2cc(NC(=O)CCS)ccc21 | 43.1
72 | O=C(NCCS)c1cnnc(-c2ccccc2)c1 | 36.7
73 | CCCn1c(=O)[nH]c(=O)c2cc(C(=O)NCCS)cnc21 | 32.9
74 | Cc1noc(C)c1CN(C)CCC(=O)NCCS | 29.6
75 | O=C(NCCS)[C@@H]1Cc2ccccc2O[C@H]1C(F)(F)F | 29
76 | O=C(NCCS)c1csc(Nc2cc(F)cc(F)c2)n1 | 39.2
77 | Cc1ccc(C(=O)NCCS)cc1-n1cccc1 | 21.8
78 | Cc1csc2ncc(C(=O)NCCS)c(=O)n12 | 66.9
79 | Cc1cc(C(F)F)n2ncc(C(=O)NCCS)c2n1 | 38.2
80 | Cc1ccc(Nc2cccc(C(=O)NCCS)c2)nn1 | 47.8
81 | Cc1ccn(-c2ccccc2C(=O)NCCS)n1 | 29.2
82 | O=C(NCCS)C1(C2CCOCC2)CCOCC1 | 30.8
83 | CC1(C)CNC(=O)c2c(C(=O)NCCS)coc2C1 | 31.9
84 | O=C(NCCS)c1ccc2cc(O)ccc2c1 | 36.6
85 | CC(C)CNC(=O)N1CCCC(CC(=O)NCCS)C1 (stereo not given) | 21.7
86 | Cc1nc2ccccc2n(CCNC(=O)CCS)c1=O | 41.5
87 | COC(=O)c1ccc(CNC(=O)CCS)nc1C1CC1 | 44.4
88 | Cc1c(C(=O)NCCS)[nH]c2cc(Cl)ccc12 | 23
89 | CCNC(=O)CN1CCN(C(=O)CCS)CC1 | 25.2
90 | CNC(=O)c1cccc(OCC(=O)NCCS)c1 | 37.2
